# Experimental data reported in paper PMC4336329 (PLoS ONE, 2015).
# About 14,000 (4.5%) of roughly 310,000 compounds showed an effect of 50% or more. The effect is printed as a negative number. Some of the results follow. Where a SMILES comes first, the peptide text is derived from it. [ ]: non-standard residue; d: D form. The star is where a group is joined. Hyp = O=C(O)[CH]1C[CH](O)CN1; Cbz = O=C(OCc1ccccc1)*; OBn = c1ccc(CO*)cc1
# Target: human ether-à-go-go-related gene (hERG) potassium channel (human, UniProt Q12809)
# Assay: primary screen, population patch clamp on CHO cells stably expressing hERG
# 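Also: peak tail current of the secondary pulse compared with the same well before compound.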
# human ether-à-go-go-related gene (hERG) potassium channel, sequence (Q12809 whole entry, looked up): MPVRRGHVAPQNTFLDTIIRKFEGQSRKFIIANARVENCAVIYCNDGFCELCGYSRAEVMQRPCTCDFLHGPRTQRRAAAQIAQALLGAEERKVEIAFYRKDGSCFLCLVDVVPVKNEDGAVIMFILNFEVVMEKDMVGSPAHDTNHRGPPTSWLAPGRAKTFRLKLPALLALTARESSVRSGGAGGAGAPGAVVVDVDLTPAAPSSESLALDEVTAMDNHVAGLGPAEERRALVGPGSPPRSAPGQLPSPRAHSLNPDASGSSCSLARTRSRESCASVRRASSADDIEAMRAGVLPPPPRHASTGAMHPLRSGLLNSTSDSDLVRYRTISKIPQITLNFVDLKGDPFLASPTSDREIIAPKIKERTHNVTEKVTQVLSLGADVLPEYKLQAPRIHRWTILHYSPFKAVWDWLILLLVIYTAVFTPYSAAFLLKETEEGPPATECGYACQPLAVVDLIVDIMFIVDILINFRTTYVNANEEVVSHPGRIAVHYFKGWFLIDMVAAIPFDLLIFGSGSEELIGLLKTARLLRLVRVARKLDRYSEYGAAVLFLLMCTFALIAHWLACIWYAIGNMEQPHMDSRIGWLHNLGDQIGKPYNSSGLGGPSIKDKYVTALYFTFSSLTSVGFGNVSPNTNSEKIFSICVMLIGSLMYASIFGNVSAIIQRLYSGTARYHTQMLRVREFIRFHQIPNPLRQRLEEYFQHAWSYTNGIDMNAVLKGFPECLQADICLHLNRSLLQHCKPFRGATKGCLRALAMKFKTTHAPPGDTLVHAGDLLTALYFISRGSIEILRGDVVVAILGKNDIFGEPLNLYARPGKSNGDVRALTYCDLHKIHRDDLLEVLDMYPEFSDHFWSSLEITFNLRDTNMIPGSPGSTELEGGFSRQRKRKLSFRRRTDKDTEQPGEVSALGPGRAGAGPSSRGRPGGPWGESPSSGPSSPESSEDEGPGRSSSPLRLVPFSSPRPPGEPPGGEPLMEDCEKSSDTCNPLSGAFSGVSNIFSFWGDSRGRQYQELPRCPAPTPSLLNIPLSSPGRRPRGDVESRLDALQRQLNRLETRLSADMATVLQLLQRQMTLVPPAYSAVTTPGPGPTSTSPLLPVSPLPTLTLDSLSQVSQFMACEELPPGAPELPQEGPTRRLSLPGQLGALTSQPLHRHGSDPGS
row,Structure (SMILES),"hERG current change (%, negative = inhibition) at 10uM [%]"
1,O=C(c1ccc2c(=O)n(Cc3ccc4c(c3)OCO4)c(=O)[nH]c2c1)N1CCN(c2ccccc2)CC1,-6.05
2,CCOC(=O)c1sc(N=NC2=C(O)CCCC2=O)c(C(=O)OCC)c1C,22.6
3,Cn1c(SCc2ccccc2)nnc1-c1cnccn1,-3.65
4,CC(=O)NC(CC(=O)OCC(=O)c1c(N)n(CC(C)C)c(=O)n(C)c1=O)c1ccccc1 (centres unmarked),-3.32
5,Cc1ccc(-n2c(=O)[nH]c3cc(C(=O)NC4CCN(Cc5ccccc5)CC4)ccc3c2=O)cc1,11.2
6,CCOC(=O)CCC(=O)Nc1ccc(S(=O)(=O)Nc2cc(OC)nc(OC)n2)cc1,24.8
7,CCCCCOc1ccc(C(=O)CCC(=O)Nc2ccc(NC(C)=O)cc2)cc1,21
8,O=C(NCC(=O)N1CC(O)CC1C(=O)N1CCCC1C(=O)OCc1ccccc1)OCc1ccccc1 (stereo not drawn) (Cbz-Gly-[Hyp]-Pro-OBn; configuration not given here),26.7
9,Cc1ccc2nc(Cl)c(C#N)cc2c1,7.99
10,CCn1c(C(=O)N2CCC(C(=O)N3CCC4(CC3)OCCO4)CC2)cc2sccc21,-4.71
11,Cc1scc(C(=O)O)c1-c1c(C(=O)O)csc1C,23.8
12,CS(=O)(=O)N(Cc1nc2sc3c(c2c(=O)[nH]1)CCCC3)C1CCCCC1,6.55
13,C1=C(CCNc2ncnc3c2[nH]c2ccccc23)CCCC1,15.1
14,COc1ccc(-n2nnnc2/C=C/Nc2cc(C(F)(F)F)ccc2OC)cc1,15
15,COc1cc(CNc2ncn[nH]2)ccc1OCC(=O)NC(C)(C)C,24
16,CC(C)N(Cc1ccccc1)C(=O)COC(=O)c1cnccn1,-5.21
17,Brc1ccc(Oc2cc(Br)c(Br)cc2Br)c(Br)c1,23.4
18,CN1CCN(C(=O)C(=O)c2cn(CC(=O)N3CCCC3)c3ccccc23)CC1,18.7
19,COc1ccc(NC(=O)c2c(N)cnn2C)cc1,15.7
20,CC(=O)Nc1ccc(C2(c3ccc(NC(C)=O)cc3)C(=O)Nc3ccccc32)cc1,19.1
21,COC(=O)C(C)Oc1ccc2c(c1)O/C(=C\c1ccco1)C2=O (centres unmarked),-8.95

row,Structure (SMILES),"hERG current change (%, negative = inhibition) at 10uM [%]"
1,CC1(C)Cc2c(sc(NC(=O)COc3ccccc3)c2C#N)C(C)(C)N1,-9.66
2,CCC1CCC2(CC1)NC(=O)N(CC(=O)c1c(C)[nH]c3ccccc13)C2=O (centres unmarked),-7.81
3,COc1ccc(NC(=O)CN(C)C(=O)c2cc(S(=O)(=O)N3CCCCCC3)ccc2OC)cc1,-24
4,Cc1ccc(C)c(-n2c(-c3ccco3)n[nH]c2=S)c1,11.9
5,Cc1cc(S(=O)(=O)Nc2ccc3c(c2)COC3=O)ccc1F,7.2
6,O=C(COC(=O)c1ccc2ncsc2c1)Nc1cccc(Cl)c1,2.07
7,O=C(NC1CCCCC1)C(c1ccccn1)N(C(=O)c1csnn1)c1ccccc1F (centres unmarked),0.965
8,COc1ccc(-c2cc(C(F)F)n3ncc(C(=O)N4CCN5CCCC5C4)c3n2)cc1 (centres unmarked),-24.4
9,CC1C(=O)N(Cc2ccc([N+](=O)[O-])cc2)c2ccccc2N1C(=O)c1c(F)cccc1F (centres unmarked),-16.6
10,COCCCN1C(=O)/C(=C\c2ccc3c(c2)OCO3)C(C(=O)OC)=C1C,10.2
11,COc1ccc(C(=O)CCc2ccccc2O)c(OC)c1,1.09
12,CCc1nc2ccccc2c(C(=O)Nc2ccc(F)cc2)c1C,2.62
13,CCC(C)NC(=O)CCC(=O)NNc1nc2ccccc2c2nc(C)nn12 (centres unmarked),8.1
14,O=C(NCC1CCCO1)C1CCCN(S(=O)(=O)c2ccc(F)cc2)C1 (centres unmarked),8.21
15,Cc1cc(NC(=O)/C=C/c2ccccc2)no1,11.1
16,COc1ccc2c(c1)C(=O)N(Cc1ccccc1)C(=O)C2(C)C,6.19
17,CCCCOc1ccc(/C(O)=C2/C(=O)C(=O)N(CCN(C)C)C2c2ccc(O)c(OC)c2)cc1 (centres unmarked),1.38
18,Cc1cc(/C=N\NC(=O)COc2cccc3cccnc23)c(C)n1-c1ccc(Br)cc1,-9.98
19,CCOC(=O)C1CCN(C(=O)Cn2cc(C(=O)c3ccco3)c3ccccc32)CC1,-11.4
20,Cc1c(F)cccc1NC(=O)c1ccc2c(c1)CCN2S(C)(=O)=O,1.55
21,COc1cc(/C=C2\C(=N)N3N=C(S(C)(=O)=O)SC3=NC2=O)ccc1OCCOc1ccccc1C,7.27

row,Structure (SMILES),"hERG current change (%, negative = inhibition) at 10uM [%]"
1,O=C(OCC(=O)N1N=C(c2ccc(Cl)cc2)CC1c1ccco1)c1ccco1 (centres unmarked),27.4
2,CCn1cc(C(=O)N[C@@H](CCSC)C(=O)NCCN2CCOCC2)c(=O)c2cc3c(cc21)OCO3,21.2
3,Cc1cc(NC(=O)COc2ccc(N(C)S(=O)(=O)c3ccccc3)cc2)no1,-24.9
4,COc1cc(CNc2ccc3[nH]c(=O)[nH]c3c2)cc(Br)c1OCc1ccccc1F,4.58
5,Cc1ccc([N+](=O)[O-])cc1NC(=O)c1ccc(C(C)(C)C)cc1,-8.49
6,COc1ccccc1-c1cn(S(=O)(=O)c2ccc(C)cc2)nc1N,8.9
7,COc1ccc(C2=NOC(Cn3nc(C(=O)NCc4ccccc4OC)cc3-c3ccccc3)C2)cc1 (centres unmarked),-16.2
8,CCCCn1c(N)c(N(CCOC)C(=O)CSCc2ccc(C)cc2)c(=O)[nH]c1=O,13.4
9,COc1ccc(S(=O)(=O)NCC(c2cccs2)N2CCc3ccccc3C2)cc1 (centres unmarked),-46.1
10,Cn1c(CNC(=O)c2ccco2)nnc1SCC(=O)c1ccc(F)cc1,-0.66
11,Cc1ccc(NC(=O)CCNC(=O)N2C[C@H]3C[C@@H](C2)c2cccc(=O)n2C3)c(C)c1,8.36
12,C=CCSc1nnc(NC(=O)c2cccc(S(=O)(=O)N(C)c3ccccc3)c2)s1,0.621
13,O=C(CN1C(=O)C2CC=CCC2C1=O)Nc1nccs1 (centres unmarked),2.92
14,COc1ccc(-n2c(SCC(=O)Nc3cc(C)on3)nc3ccccc3c2=O)cc1Cl,5.94
15,O=C(O)c1cccc(NS(=O)(=O)c2ccc(Oc3ccc(S(=O)(=O)Nc4cccc(C(=O)O)c4)cc3)cc2)c1,20.3
16,COc1ccccc1OCC(=O)Nc1cccc(N(C)S(C)(=O)=O)c1,-26.1
17,Cl.OC(COc1c(F)cc(Br)cc1F)CN1CCc2ccccc2C1 (centres unmarked),-72.2
18,Cn1cc(Br)c(C(=O)N2CCN(c3cccc(Cl)c3)CC2)n1,-2.41
19,Nc1c(S(=O)(=O)[O-])cc(NC(=O)c2ccccc2)c2c1C(=O)c1ccccc1C2=O.[Na+],-8.77
20,O=C(NC(=S)NNC(=O)[C@H]1C[C@@H]1c1ccccc1)c1ccc(F)cc1,3.86
21,COc1ccc(CCn2c(-c3ccc(F)cc3)nc3c(c(=O)c4ccccc4n3C)c2=O)cc1OC,-24.8

row,Structure (SMILES),"hERG current change (%, negative = inhibition) at 10uM [%]"
1,O=C(C1CCN(S(=O)(=O)N2CCCCC2)CC1)N1CCCCC1,-0.696
2,CCOC(=O)C1=NNC(C(=O)c2ccccc2)C1c1ccc(Cl)cc1 (centres unmarked),-18.3
3,CCOc1ccc(S(=O)(=O)NCC(=O)N(C)Cc2cccnc2)cc1,-2.05
4,O=[N+]([O-])c1ccc(Nc2ccc(N3CCOCC3)cc2)c([N+](=O)[O-])c1,10
5,CCC1(c2ccc(F)cc2)NC(=O)N(CC(=O)Nc2ccc(C)c(S(=O)(=O)N3CCOCC3)c2)C1=O (centres unmarked),-1.48
6,CCOC(=O)c1c(-c2ccccc2)oc2ccc(O)c(CN(C)C)c12,-40.2
7,COC(=O)c1cccc(CSc2nnc(-c3ccco3)n2-c2ccccc2)c1,-33.9
8,CC(C)(C)S(=O)(=O)c1cnc(N2CCCC2)nc1N,5.53
9,O=C(Nc1cccnc1Oc1ncnc2cc(Cl)ccc12)c1ccc(F)cc1,3
10,Oc1ccc2c(c1)C1CCCC1(N1CCOCC1)O2 (centres unmarked),3.8
11,CCOc1ccc(N2C(=O)CC(N)C2=O)cc1 (centres unmarked),1.65
12,O=C(O)c1ccc2c(=O)n3c(nc2c1)/C(=C/c1cccc(O)c1)CC3,8.17
13,CCOC(=O)C1(Cc2ccc(OC)cc2)CCN(C(=O)Cc2cccnc2)CC1,-17.8
14,COc1ccccc1C(=O)NC(=O)Nc1cccc(Cl)c1,-0.649
15,Cc1c(Nc2nc(-c3ccccc3)cs2)c(=O)n(-c2ccccc2)n1C,-0.167
16,CC1CCCN(CC(=O)c2ccc(Cl)c(Cl)c2)C1 (centres unmarked),-4.92
17,COc1ccc(Cc2c(O)[nH]c(=S)[nH]c2=O)cc1,13.8
18,CC(C)(C)NS(=O)(=O)c1cc2c3c(c1)CCN3C(=O)CC2,17.4
19,O=C(Nc1nnc(SCc2ccc(F)cc2)s1)C1=COCCO1,0.187
20,Cc1ccc(NC(=O)Nc2ccc(C(=O)N3CCOCC3)cc2)cc1,-5.28
